Experimental findings from publication PMC3062594, “Intermolecular masking of the HIV-1 Rev NLS by the cellular protein HIC: Novel insights into the regulation of Rev nuclear import” (Retrovirology, 2011) are described below.

The chains behind the UniProt entries cited, without tags or fusion partners.
UniProt Q92973: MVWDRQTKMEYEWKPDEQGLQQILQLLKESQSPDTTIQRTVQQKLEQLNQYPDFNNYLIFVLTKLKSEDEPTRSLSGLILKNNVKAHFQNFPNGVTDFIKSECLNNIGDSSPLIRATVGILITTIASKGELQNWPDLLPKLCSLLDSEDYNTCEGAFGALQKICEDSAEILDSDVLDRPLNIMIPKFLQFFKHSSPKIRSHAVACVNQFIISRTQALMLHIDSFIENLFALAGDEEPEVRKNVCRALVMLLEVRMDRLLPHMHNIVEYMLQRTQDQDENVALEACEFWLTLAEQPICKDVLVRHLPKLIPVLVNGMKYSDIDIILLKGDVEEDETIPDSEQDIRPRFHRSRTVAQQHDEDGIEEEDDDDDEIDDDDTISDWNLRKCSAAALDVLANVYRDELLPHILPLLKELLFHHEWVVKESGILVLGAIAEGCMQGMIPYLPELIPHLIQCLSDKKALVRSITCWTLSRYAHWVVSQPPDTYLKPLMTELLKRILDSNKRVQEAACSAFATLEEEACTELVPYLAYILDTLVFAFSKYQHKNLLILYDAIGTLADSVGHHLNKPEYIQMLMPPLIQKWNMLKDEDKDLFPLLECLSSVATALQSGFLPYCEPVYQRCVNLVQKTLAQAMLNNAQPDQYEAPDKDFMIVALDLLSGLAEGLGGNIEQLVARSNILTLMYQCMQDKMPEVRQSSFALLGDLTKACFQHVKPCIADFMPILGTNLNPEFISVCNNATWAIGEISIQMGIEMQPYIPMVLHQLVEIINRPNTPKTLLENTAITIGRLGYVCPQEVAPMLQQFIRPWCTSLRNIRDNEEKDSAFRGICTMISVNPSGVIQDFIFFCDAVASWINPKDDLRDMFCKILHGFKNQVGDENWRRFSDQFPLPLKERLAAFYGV

These are yes or no findings as the source states them, for the method shown. For part of these data: Binding seen in cells or lysates may run through a third protein. Some results given as binding are weak or reduced against the parent protein; the word gives no strength. For part of these data: Sequences can lack the tags named with a protein.

Test [1] deals with GST-YFP-RevNLS (aa35-46) (HIV-1) (UniProt P04618). Kind of test: pull-down; both purified.
Test [2] has as its target GST-YFP-Rev (aa1-116) (HIV-1) (UniProt P04618). Kind of test: pull-down; both purified.
Test [3] has as its target HA-Rev (pCAGGS-HA-Rev, aa 1-116) (HIV-1) (UniProt P04618). Kind of test: co-IP.
Test [4] deals with GST-YFP-RevΔN1 (aa35-116) (HIV-1) (UniProt P04618). Description: pull-down; purified recombinant HIC incubated with immobilised GST-YFP (control) and GST fusion proteins (bait); eluted, SDS-PAGE; HIC detected by Western blot; both purified.
Test [5] deals with GST-YFP-RevΔN2 (aa46-116) (HIV-1) (UniProt P04618). The description is as above.
In test [6] the target is GST-YFP-Rev (aa1-116) (HIV-1) (UniProt P04618). The test is described as above.

Consider “recombinant transportin C-His (from UniProt Q92973 1-898)”, for which the binding entry in test [1] and in test [2] was “binds” in each case.

With “FLAG-HIC (2-144) (from UniProt Q9P1T7-2 2-144) (domain or fragment)”, the binding result in test [3] is “no binding”.

Turning to “FLAG-HIC (144-246) (from UniProt Q9P1T7-2 144-246) (domain or fragment)”, in test [3], the binding result was “binds”.

B1: recombinant 6×His-HIC (Human I-mfa domain-Containing protein) (protein, UniProt Q9P1T7-2 1-246)
chain: MSGAGEALAPGPVGPQRVAEAGGGQLGSTAQGKCDKDNTEKDITQATNSHFTHGEMQDQSIWGNPSDGELIRTQPQRLPQLQTSAQVPSGEEIGKIKNGHTGLSNGNGIHHGAKHGSADNRKLSAPVSQKMHRKIQSSLSVNSDISKKSKVNAVFSQKTGSSPEDCCVHCILACLFCEFLTLCNIVLGQASCGICTSEACCCCCGDEMGDDCNCPCDMDCGIMDACCESSDCLEICMECCGICFPS
Take B1: the binding result in test [4] is recorded as “binds”; in test [5], “no binding”; in test [6] it was “binds”; in test [2], “binds”.

B2: FLAG-HIC (pFLAG-HIC) (protein, UniProt Q9P1T7-2 1-246)
chain: B1 chain
Turning to B2, in test [3], the binding result is given as “binds”.
